Experimental data: the antibiotic and cytotoxicity screens of Wong et al. (2023)
This is one part of the list.

Legend:
HSkMC = human skeletal muscle cells; test: cytotoxicity call (relative viability < 0.9); details: 10 µM
HepG2 = test: cytotoxicity call (relative viability < 0.9); details: 10 µM
S. aureus RN4220 = test: growth inhibition call (relative growth <= 0.2); details: 50 µM

SMILES	cytotoxicity call (HSkMC)	cytotoxicity call (HepG2)	growth inhibition call (S. aureus RN4220)
C[C@@H]1CN([C@@H](C)CO)C(=O)Cc2cc(NC(=O)Cc3ccccc3)ccc2O[C@@H]1CN(C)S(=O)(=O)c1cccs1	inactive	active	inactive
CO[C@@H]1CN(C)C(=O)c2ccc(NS(=O)(=O)c3ccccc3)cc2OC[C@H](C)N(C(=O)NC(C)C)C[C@H]1C	inactive	inactive	inactive
C[C@@H]1CN([C@@H](C)CO)C(=O)c2cc(NS(=O)(=O)c3cccs3)ccc2O[C@@H](C)CCCCO[C@H]1CN(C)Cc1ccccc1	inactive	active	inactive
O=c1[nH]c(=O)n([C@@H]2O[C@H](CO)[C@@H](O)[C@H]2O)cc1Br	inactive	inactive	inactive
COc1ccc(S(=O)(=O)Nc2cccc3c2O[C@@H](CN(C)S(=O)(=O)c2ccc(C)cc2)[C@H](C)CN([C@H](C)CO)C3=O)cc1	inactive	inactive	inactive
C=CCC[C@@H](Cc1ccc(F)cc1)C(=O)OC[C@H]1CCCN1C(=O)[C@@H](CC=C)CC(=O)N(CCO)Cc1ccccc1	inactive	inactive	inactive
COCC(=O)N1C[C@@H](C)[C@H](OC)CN(C)C(=O)c2ccc(NC(=O)Nc3cccc(F)c3)cc2OC[C@H]1C	inactive	inactive	inactive
C[C@@H]1CN([C@H](C)CO)C(=O)c2cc(NC(=O)C3CCCCC3)ccc2O[C@@H]1CN(C)Cc1ccc(C(F)(F)F)cc1	inactive	inactive	inactive
CN1CCCC1CCOC(C)(c1ccccc1)c1ccc(Cl)cc1.O=C(O)C=CC(=O)O (stereo not given)	inactive	active	inactive
C[C@H]1CN([C@@H](C)CO)C(=O)Cc2cc(NC(=O)Nc3cccc(C(F)(F)F)c3)ccc2O[C@H]1CN(C)S(=O)(=O)c1ccc(Cl)cc1	active	active	inactive
C[C@@H]1CN([C@H](C)CO)C(=O)Cc2cc(NC(=O)Nc3ccc(C(F)(F)F)cc3)ccc2O[C@@H]1CN(C)Cc1ccc(-c2ccccc2)cc1	active	active	inactive
COc1ccc(NC(=O)Nc2ccc3c(c2)C(=O)N([C@H](C)CO)C[C@H](C)[C@H](CN(C)Cc2ccc(C(=O)O)cc2)OCCCC[C@@H](C)O3)cc1	inactive	inactive	inactive
O=C(C[C@@H]1C[C@H]2c3cc(NS(=O)(=O)c4ccc(F)cc4)ccc3O[C@H]2[C@@H](CO)O1)NCCN1CCCCC1	inactive	inactive	inactive
Cc1noc(C)c1NC(=O)N[C@@H]1C=C[C@@H](CC(=O)NCCCN(C)C)O[C@H]1CO	inactive	inactive	inactive
COC(=O)[C@@H]1[C@H](C(=O)O)[C@@]2(C(=O)Nc3ccc(C#Cc4ccc(OC)cc4)cc32)[C@@H](c2ccccc2)N1C	inactive	inactive	inactive
C[C@H](CO)N1C[C@H](C)[C@@H](CN(C)Cc2ccc3c(c2)OCO3)OCCCC[C@H](C)Oc2ccc(NC(=O)NC3CCCCC3)cc2C1=O	inactive	inactive	inactive
NC(=O)[C@H]1[C@H](C(=O)O)[C@@H]2C=C[C@H]1C2	inactive	inactive	inactive
Cc1noc(C)c1S(=O)(=O)Nc1ccc2c(c1)CC(=O)N([C@H](C)CO)C[C@@H](C)[C@H](CN(C)C(=O)NC1CCCCC1)O2	inactive	inactive	inactive
C[C@H]1CN([C@@H](C)CO)S(=O)(=O)c2ccc(C#CC3(O)CCCC3)cc2O[C@H]1CN(C)C(=O)Nc1ccccc1	inactive	inactive	inactive
CCCC(=O)Nc1ccc2c(c1)C(=O)N(C)C[C@@H](OC)[C@@H](C)CN(Cc1ccc(-c3ccccn3)cc1)[C@@H](C)CO2	inactive	inactive	inactive
COc1cccc(NC(=O)N(C)C[C@@H]2Oc3cc(C#CC4(O)CCCC4)ccc3S(=O)(=O)N([C@@H](C)CO)C[C@@H]2C)c1	inactive	inactive	inactive
O=C(C[C@@H]1C[C@@H]2c3cc(NS(=O)(=O)c4ccc(F)cc4)ccc3O[C@@H]2[C@@H](CO)O1)NC1CCCCC1	inactive	inactive	inactive
C[C@H](CO)N1C[C@H](C)[C@@H](CN(C)C(=O)c2cccnc2)Oc2cc(-c3cccc(C#N)c3)ccc2S1(=O)=O	inactive	inactive	inactive
C[C@@H]1NC(=O)NC1=O	inactive	inactive	inactive
C[C@@H]1CCCCO[C@@H](CN(C)S(=O)(=O)c2ccc(Cl)cc2)[C@H](C)CN([C@@H](C)CO)C(=O)c2cc(NS(=O)(=O)c3ccccc3)ccc2O1	inactive	inactive	inactive
